Out of some 45,000 compounds screened, about 200 (0.44%) were called active. About 7% were inconclusive and are not listed. Calls come from the whole dose curve; as a rule, active = well fitted activation curve with a large enough effect; inconclusive = small, poorly fitted or top-dose-only effect; inactive = no such curve, though single readings can be large or run the other way. The list shows a part of the results.
Assay: qHTS of TDP-43 Inhibitors: NCGC Sytravon Library Screen; note: 0% is about no effect; nearly all actives have a fitted effect of over 55% in size
Conditions: yeast TDP-43 toxicity rescue, BacTiter-Glo growth, 24 h; series mostly up to 46.1 µM; growth rescue (activation): at the top concentration
In short: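 TDP-43-expressing yeast, pregrown in raffinose, seeded at OD600 0.02 in galactose medium with compound for 24 hr at 30 deg C. Growth read by BacTiter-Glo luminescence, so rescue of toxicity appears as activation.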

Compound	growth rescue (activation)
COc1cccc(C2=NOC(C(=O)Nc3cccnc3Cl)C2)c1OC (centres undefined)	inactive: -4.76%
CC(C)c1nnc(NC(=O)c2nc(S(=O)(=O)Cc3ccccc3)ncc2Cl)s1	inactive: -0.774%
Cc1ccc(C(=O)N2CCOCC2)cc1[N+](=O)[O-]	inactive: 2.65%
Cc1cccc(N(Cc2cc3ccccc3[nH]c2=O)S(C)(=O)=O)c1	inactive: 0.0641%
CC(C)(C)c1ccc(C(=O)Nc2ccc([N+](=O)[O-])cn2)cc1	inactive: 9.07%
Cn1c(SCC(=O)Nc2cccc(S(=O)(=O)NC3=NCCCCC3)c2)nnc1-c1ccncc1	inactive: -9.92%
COc1ccc(C(C)(C)C)cc1NC(=O)CCCn1c(=O)oc2ccccc21	inactive: 21.1%
CCN(c1ccccc1)S(=O)(=O)c1cc(NC(=O)CN2CCN(C)CC2)ccc1Cl	inactive: -8.25%
Cc1sc(NC(=O)COc2ccc(C(C)(C)C)cc2)c(C(=O)OC(C)C)c1C	inactive: -4.89%
O=c1c2ccccc2cnn1Cc1n[nH]c(=S)n1-c1ccccc1Cl	inactive: -2.89%
COc1cccc(-c2nc(C#N)c(N3CCN(C(=O)c4ccco4)CC3)o2)c1	inactive: 22.2%
Cc1ccc(NC(=O)C(C)N2CCCC2)cc1Cl (centres undefined)	inactive: -4.09%
Cc1cc(C)n(CC(=O)N2CCCC(N3CCN(c4ccccc4C)CC3)C2)n1 (centres undefined)	inactive: -19.5%
O=C(NCCS(=O)c1ccc(Cl)cc1)c1cccc(Cl)c1 (centres undefined)	inactive: 6.18%
Cc1ccnc(NC(=O)CCC(=O)N(CC(=O)NC(C)(C)C)c2ccc(F)c(Cl)c2)c1	inactive: -3.54%
O=C(CCOc1ccccc1)NNC(=O)c1ccccc1	inactive: -1.25%
O=c1nc2ccc(Cl)cn2c2ccc(S(=O)(=O)N3CCCCC3)cc12	inactive: 9.51%
CSc1ccc(CN(C)C(=O)C23CC4CC(CC(Cl)(C4)C2)C3)cc1	inactive: 7.14%
Cc1ccc(S(=O)(=O)NCC(=O)N(CC(=O)NCC2CCCO2)Cc2ccc(Cl)cc2)cc1 (centres undefined)	inactive: 14%
CCOC(=O)Cc1[nH]nc2c1C(c1ccsc1)C(C#N)=C(N)O2 (centres undefined)	inactive: 7.36%
O=C(COc1ccc(Cl)cc1[N+](=O)[O-])N1CCCCC1	inactive: 5.48%
O=C(COC(=O)c1n[nH]c(=O)c2ccccc12)Nc1ccccc1F	inactive: 17.4%
O=Cc1c(N2CCC3(CC2)OCCO3)nc2ccccn2c1=O	inactive: 1.38%

Compound	growth rescue (activation)
Cc1c(C(=O)N2CCOCC2)sc(NC(=O)C(C)C)c1C#N	inactive: -0.755%
Cc1c(C(=O)O)oc2c1C(=O)CC(C)(C)C2	inactive: 6.29%
CC(Cc1ccco1)NC(=O)c1cccc(S(=O)(=O)N(C)C)c1 (centres undefined)	inactive: -1.84%
Cc1ccc(/C=N/NC(=S)NC2CCCCC2)o1	inactive: 20.2%
CCN(Cc1cccc(F)c1)C(=O)c1ccc2ccccc2n1	inactive: 17.3%
COc1ccc(Nc2nc(C)nc3c2oc2ccccc23)cc1	inactive: 26.4%
CS(=O)(=O)c1ccc(Cl)c(NC(=O)COC(=O)c2ccc(S(=O)(=O)N3CCCC3)cc2)c1	inactive: 8.52%
O=C1CN(c2ccccc2)C(=S)N1C(=O)c1ccccc1	inactive: 21.8%
Cc1ccc(CSCCNS(=O)(=O)c2ccc(C)cc2)cc1	inactive: 25.1%
Cc1ccc(NC(=O)CSc2cn[nH]n2)cc1	inactive: 5.71%
CC(=O)Nc1ccc(OC(=O)c2cc3cc(Br)ccc3oc2=O)cc1	inactive: 8.4%
CCOc1ccc(NC(=O)C2CCCN2C(=O)Oc2ccccc2)cc1 (centres undefined)	inactive: -2.8%
O=C(O)c1ccc(N/N=C/C2=C(N3CCOCC3)C(=C\c3ccccc3)/CC2)cc1	inactive: 19.3%
COc1ccc(C(=O)COC(=O)C2CCN(c3ccc(C(F)(F)F)cn3)CC2)c(OC)c1	inactive: 27.9%
CC(C)CCN(CC(=O)NC(C)(C)C)C(=O)C(=O)Nc1ccc2c(c1)OCCO2	inactive: -5.96%
Cc1nn(CCC#N)c(N)c1C1(O)C(=O)Nc2c(Cl)cc(Cl)cc21 (centres undefined)	inactive: 1.24%
O=C(COC(=O)c1cccc(NS(=O)(=O)c2ccc(F)c(F)c2)c1)NC(=O)NC1CCCCC1	inactive: -12.2%
CCN1CC(CN(C)Cc2nc(-c3ccc(OC)c4ccccc34)oc2C)CC1=O (centres undefined)	inactive: 14.6%
O=C(NCC1CCCO1)C1CCCN1C(=O)Nc1ccccc1[N+](=O)[O-] (centres undefined)	inactive: 11.5%
CN(C(=O)CSc1nnc(Cc2ccccc2F)n1N)C1CCCCC1	inactive: 3.23%
CCc1cccc(CC)c1NC(=S)NCC(c1cccnc1)N(C)C (centres undefined)	inactive: -11.9%
CC(=O)c1cccc(NC(=O)c2ccccc2OCc2ccc(F)cc2)c1	inactive: 2.16%
CCCn1nc(NC(=O)C2CCCO2)c2cc3ccc(C)cc3nc21 (centres undefined)	inactive: 4.03%

Compound	growth rescue (activation)
O=C(NCc1cccc(Cl)c1)NCc1cccc(Cl)c1	inactive: -1.79%
O=C(NCCc1ccccc1)c1ccccc1NC(=O)C1CCCO1 (centres undefined)	inactive: -1.4%
O=C(Cc1cccs1)NNC(=S)NCc1ccco1	inactive: 7.39%
Cc1cc(NC(=O)CSc2nnnn2-c2ccc(C)c(C)c2)no1	inactive: -0.189%
COC(=O)c1ccc(NC(=O)CN(c2ccc3c(c2)OCO3)S(C)(=O)=O)cc1	inactive: 2.33%
COc1ccc(/C(O)=C/C(=O)C(=O)NNC(=O)c2ccccc2)cc1	inactive: -22.8%
CC(=O)Nc1ccc(C(=O)OCC(=O)N2CCCC2)cc1	inactive: 11.5%
COc1cc(OC)cc(C(=O)NC2CC3CCC(C2)N3Cc2ccco2)c1 (centres undefined)	inactive: 2.78%
COc1ccc(CNC(=O)C(C)c2ccc([N+](=O)[O-])cc2)cc1 (centres undefined)	inactive: 21.3%
COc1ccc(OC)c(NC(=O)C(CCSC)NS(=O)(=O)c2cccs2)c1 (centres undefined)	inactive: 5.8%
Cc1onc(C(=O)N2CCN(c3ccccc3F)CC2)c1-c1ccccc1Cl	inactive: 13.4%
Cc1cc(F)ccc1C(O)c1ncc(-c2cccc(OCc3ccccc3)c2)[nH]1 (centres undefined)	inactive: 3.82%
COc1ccc(Cl)cc1N(C(=O)c1ccco1)C(C(=O)NC1CCCC1)c1ccncc1 (centres undefined)	inactive: 5.54%
O=C(O)C1Cc2ccccc2CN1S(=O)(=O)/C=C/c1ccccc1 (centres undefined)	inactive: 0.466%
COc1ccccc1C(=O)NNC(=O)Cc1ccccc1	inactive: -5.17%
Cn1cnnc1SCC(=O)Nc1ccc(Cl)cn1	inactive: -6.3%
Nc1cc(S(=O)(=O)N2CCCCC2)ccc1N1CCOCC1	inactive: -2.93%
O=C(CN1C(=O)C2C3C=CC(C3)C2C1=O)Nc1nncs1 (centres undefined)	inactive: -9.93%
CCCc1nc2nc(C)c(NS(=O)(=O)c3ccc4c(c3)CCCC4)c(=O)n2[nH]1	inactive: 16.7%
Cc1ccc(NC(=O)C2CCN(S(=O)(=O)c3ccc(N4CCCC4=O)cc3)CC2)cc1Cl	inactive: -5.72%
COc1ccc(S(=O)(=O)NCc2cccnc2)cc1NC(=O)c1ccccc1C	inactive: 0.378%
Cc1ccc(C(=O)NNC(=O)CSc2nc(N)cc(N)n2)cc1	inactive: 14%
N=C1SCC(=O)N1c1ccccc1Cl	inactive: -9.07%

— PubChem BioAssay AID1347073 (National Center for Advancing Translational Sciences (NCATS), 2019)
